The whole screen tested about 330,000 compounds, of which about 4,200 (1.3%) were called active. The inconclusive results got no clear call from the source; some entries with a clear call stand among them for comparison. The call rests on the fitted dose curve; in most records, active means well fitted activation curve with a large enough effect; inconclusive means small, poorly fitted or top-dose-only effect; inactive means no such curve, though single readings can be large or run the other way. A potency beside an inconclusive call is a rough fit, not a confirmed value.
experiment: qHTS screen for small molecules that induce genotoxicity in human embryonic kidney (HEK293T) cells expressing luciferase-tagged ELG1; conditions: HEK293T ELG1-luciferase reporter, luminescence, 16 h; series mostly up to 46 µM; activity change, positive = activation: at the top concentration; further: nearly all actives have a fitted effect of over 60% in size; on activity change, positive = activation: % of control where 0% means no effect
Method in brief: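 HEK293T cells expressing luciferase-tagged ELG1 were treated with compound or DMSO for 16 hr at 37°C. Luciferase activity was then read after 30 min with ONE-Glo at room temperature; rising signal flags genetic stress.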
Potency means the concentration at half of the fitted maximal effect; tags describe the fitted curve by direction and shape.

SMILES	Potency	activity change, positive = activation
C=CCn1c(SCc2c(C)noc2C)nc2cc(C(=O)O)ccc2c1=O	inconclusive: 23.1 µM [activator, partial curve, poor fit]	
Cc1ccc(NC(=O)c2cc(C)n(-c3cccc(C)c3)c2C)cc1	inconclusive: 9.2 µM [activator, partial curve]	
COc1ccc(NC(=O)Nc2c[nH]c(=O)[nH]c2=O)cc1OC		inactive: 0.253%
CCC(=O)N/C(=N/c1nc(C)cc(C)n1)Nc1cccc(OC)c1		inactive: -3.44%
COc1ccccc1NS(=O)(=O)c1ccc(C(=O)N2CCCC(C(F)(F)F)C2)cc1 (stereo unspecified)		inactive: 0.624%
CN=Cc1nc(-c2ccccc2)oc1O	inconclusive: 20.6 µM [activator, partial curve]	
Cc1ccc(SCc2cc(=O)n3ccsc3n2)c(C)c1	inconclusive: 20.6 µM [activator, partial curve, poor fit]	
COc1ccccc1N1CCN(c2ccc(-c3ccccc3)nn2)CC1	inconclusive: 1.84 µM [activator, partial curve]	
COc1ccc(C2=NCC(CSc3nnnn3C)S2)cc1 (stereo unspecified)	inconclusive: 25.9 µM [activator, partial curve, poor fit]	
N#C/C(=C\c1ccccc1)C(=O)Nc1cccnc1		inactive: -2.06%
CCC(=O)c1ccc(-c2ccccc2)cc1	inconclusive: 25.9 µM [activator, partial curve, poor fit]	
COc1ccc(-c2nnc(SCC(=O)N3CCCCC3)o2)c(OC)c1	inconclusive: 20.6 µM [activator, partial curve, poor fit]	
O=C(NC(=S)NC12CC3CC(CC(C3)C1)C2)c1ccc(F)cc1		inactive: 11.7%
Cc1ccc2nc(CSc3nc(C)ccc3C#N)[nH]c2c1		inactive: 11.4%
COc1ccc(Nc2cc(C)c3ccccc3n2)cc1	inconclusive: 29.1 µM [activator, single point]	
O=C(Nc1ccc2c(c1)OCO2)N1CCN(c2ncccn2)CC1	inconclusive: 16.4 µM [activator, partial curve]	
CCOC(=O)N1CCN(C(=O)CSc2nnc(-c3cccs3)o2)CC1		inactive: -5.42%
Cc1ccc(NC(=O)c2cc3ccccc3cc2O)cc1	inconclusive: 2.31 µM [activator, partial curve, poor fit]	
COc1cc(/C=C/c2ccc3cccc(O)c3n2)cc(Cl)c1OC	active: 20.6 µM	
O=C(c1cc(S(=O)(=O)N2CCN(c3ccccc3)CC2)ccc1Cl)N1CCCC(C(F)(F)F)C1 (stereo unspecified)	inconclusive: 8.2 µM [activator, single point]	
CC(=O)c1sc(NCc2ccc(C)cc2)nc1C	active: 23.1 µM	
CCOc1ccc(NS(=O)(=O)c2ccc(C(=O)NCC(c3ccco3)N3CCCC3)cc2)cc1 (stereo unspecified)		inactive: -0.672%
N#Cc1ccsc1NC(=O)CSc1ncn[nH]1	inconclusive: 25.9 µM [activator, partial curve, poor fit]	

SMILES	Potency	activity change, positive = activation
COc1ccc(-c2cc3ccccc3cn2)cc1	active: 2.59 µM	
Fc1ccc(-n2cc(-c3ccccc3)c3c(NN4CCOCC4)ncnc32)cc1		inactive: -1.55%
COc1cccc(CN(C)C(=O)c2ccc(COc3ccc(Cl)cc3)cc2)c1OC	inconclusive: 18.3 µM [activator, partial curve, poor fit]	
CC12CC(NC(=O)N1c1cccc(C(=O)NCc3ccc4c(c3)OCO4)c1)c1cc(Cl)ccc1O2 (stereo unspecified)		inactive: -6.21%
CCCCC/C(=N\NC(=O)Nc1ccccc1)c1ccccc1	inconclusive: 8.2 µM [activator, partial curve, poor fit]	
O=C(O)c1cccc(NC(=S)NC(=O)c2ccc(-c3ccccc3)cc2)c1	inconclusive: 0.82 µM [activator, partial curve]	
O=[N+]([O-])c1ccccc1CSc1nnc2ccccn12	inconclusive: 23.1 µM [activator, partial curve, poor fit]	
CC(=O)c1cn(-c2ccc(Cl)cc2)c(=O)n(Cc2ccc(Br)cc2)c1=O	inconclusive: 35.5 µM [activator, partial curve, poor fit]	
O=C1Nc2ccccc2/C1=C/c1cnc(-c2ccccc2)[nH]1	inconclusive: 13 µM [activator, partial curve, poor fit]	
COc1ccc(-n2nc(C(=O)NCC(=O)N3CCN(c4ccccn4)CC3)c3ccccc3c2=O)cc1Cl		inactive: -13.5%
C=CCNC(=O)c1cc(-c2ccc3c(c2)OCO3)on1	inconclusive: 3.66 µM [activator, full curve]	
COc1cc(O)c2c(c1)OC(c1ccc(O)cc1)CC2=O (stereo unspecified)	inconclusive: 20.6 µM [activator, partial curve, poor fit]	
O=[N+]([O-])c1ccc2nc(-c3ccccc3)oc2c1	inconclusive: 3.26 µM [activator, single point]	
Cc1ccc(C(=O)NC2CCCCCCC2)c(Cl)c1	active: 1.46 µM	
CCO[C@H]1OC(C(=O)N2CCN(C)CC2)=C[C@@H](C2CC2)[C@@H]1CCCO		inactive: 7.3%
O=C(Nc1cccc2nsnc12)c1cccs1	inconclusive: 9.2 µM [activator, partial curve]	
O=C(Cn1cnc2ccccc2c1=O)c1ccc(Cl)cc1	inconclusive: 14.6 µM [activator, partial curve, poor fit]	
c1cnc2c(OCc3cn4cccnc4n3)cccc2c1	inconclusive: 14.6 µM [activator, partial curve, poor fit]	
COc1cccc2cc(-c3nc4ccccc4o3)c(=O)oc12	active: 20.6 µM	
O=C(/C=C/c1ccc(O)c(O)c1)NC(=O)c1ccccc1O	inconclusive: 13 µM [activator, partial curve]	
CC12CN3CCN(CC(C3)/C1=N\NC(=O)c1ccccc1N)C2	inconclusive: 23.1 µM [activator, partial curve, poor fit]	
O=C(NCc1ccc(Cl)cc1)c1cc([N+](=O)[O-])ccc1Cl	inconclusive: 23.1 µM [activator, partial curve, poor fit]	
O=C(CSc1nnc2ccccn12)c1ccc(Cl)cc1	inconclusive: 25.9 µM [activator, partial curve, poor fit]	
